From the BET-seq Pho4 binding data (Le et al. 2018)
The other results are listed elsewhere or left out. These are noisy estimates, calculated here from bound and input reads.

These sequences were tested against T1, Pho4 (S. cerevisiae) (UniProt P07270) (assay: relative binding free energy (BET-seq); higher = weaker binding). Settings: reference: library average.
T1 sequence: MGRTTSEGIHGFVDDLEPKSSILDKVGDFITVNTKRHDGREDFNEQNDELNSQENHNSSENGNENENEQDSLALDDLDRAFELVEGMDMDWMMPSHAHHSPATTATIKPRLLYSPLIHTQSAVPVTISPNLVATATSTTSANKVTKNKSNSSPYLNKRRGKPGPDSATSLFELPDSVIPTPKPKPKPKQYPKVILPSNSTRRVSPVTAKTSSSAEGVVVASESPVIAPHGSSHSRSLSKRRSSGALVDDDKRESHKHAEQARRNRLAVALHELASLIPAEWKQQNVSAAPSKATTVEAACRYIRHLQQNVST

Sequence	relative binding free energy [kcal/mol]
GGTCGCACGTGCAGGG	-0.02
CGGCGCACGTGGTATT	-0.13
TCAGGCACGTGCTTGT	-0.06
GAGTTCACGTGGGGCA	0.29
TTATACACGTGTGGTT	0.12
TTTGACACGTGGTGAT	-0.16
ATGGGCACGTGGCTGA	-0.4
AGTTGCACGTGAATGT	0.36
GGTAACACGTGCTGGG	-0.01
AAGGACACGTGTGGGG	0.01
TTGGGCACGTGTTTGT	-0.12
TTTGTCACGTGAGTGC	0.23
GATTTCACGTGCGTTA	0.31
CGTAGCACGTGGGGTC	-0.19
TATCTCACGTGGGTTT	0.15
GGCTTCACGTGGCGTG	0.31
AGAGGCACGTGTGACT	0.03
ATTTTCACGTGTGGAA	0.39
GAGTGCACGTGTGCGT	0.03
AGATTCACGTGGGGGC	0.1
CTTGTCACGTGTTTAA	0.12
GCGTACACGTGGGGCT	-0.03
AAATACACGTGGGAGG	-0.1

Sequence	relative binding free energy [kcal/mol]
ATGTACACGTGATGAT	0.22
AGCGGCACGTGCTGTG	-0.29
GGGCGCACGTGTGCTT	-0.03
TGGTTCACGTGTTAGT	0.32
TAATGCACGTGATACG	0.16
ATTTGCACGTGAGGGT	0.28
TGAGGCACGTGATGGC	-0.06
TGTATCACGTGGCGTG	0.09
TGAATCACGTGGAGTA	0.26
GAGGGCACGTGTACGG	-0.08
TTGGTCACGTGATAAG	0.24
AATCTCACGTGATGGG	0.31
AGGGTCACGTGGTGCT	0.02
CGCTGCACGTGTTAGG	0.01
TAGAGCACGTGGATTG	-0.04
ATGGTCACGTGATGGG	0.25
GAATTCACGTGCGGGG	0.13
ATGTTCACGTGAATTT	0.28
GGGAACACGTGGTTTC	0.17
GAGGCCACGTGACGGG	0.01
GGGCGCACGTGCTCGG	0.01
TAGTGCACGTGGTGTT	-0.1
GTCTTCACGTGATGGT	0.32

Sequence	relative binding free energy [kcal/mol]
AAAGACACGTGTGGGT	0.12
AGCTGCACGTGATGGT	0.21
GGGAGCACGTGTAAGG	-0.07
TTTTTCACGTGGCGTT	0.34
TAAAACACGTGGTATG	-0.09
GTGGGCACGTGACGAG	0.06
TGTTACACGTGAGGCG	0.27
GGAAGCACGTGGGGAG	-0.19
TGTGGCACGTGTTCTC	-0.13
GTGATCACGTGGGGCT	-0.09
GGTTTCACGTGTGCCT	0.32
TGAATCACGTGTTTGG	0.08
GATAACACGTGGGGTG	-0.18
AAGTTCACGTGCTGGT	0.35
GGCGGCACGTGAGGAT	0.29
TCATTCACGTGGGAGT	0.23
ATAATCACGTGGTTGG	0.06
AGCGGCACGTGTTTAA	0.07
GGTTCCACGTGATTGT	0.2
TGTATCACGTGTTAGC	0.06
AAGTTCACGTGTAGAA	0.24
TGGTGCACGTGATTGC	0.17
GAAGGCACGTGGAGGT	-0.01

Sequence	relative binding free energy [kcal/mol]
GTGAACACGTGATTGG	0.14
TAGGACACGTGGGGCA	-0.01
GAAGGCACGTGTGTGC	-0.04
AAGAGCACGTGATAGG	-0.06
AGGGGCACGTGATTAT	0.04
ATTTTCACGTGCTGAA	0.31
TGTGTCACGTGATTAA	0.21
TGTAGCACGTGCGTCT	0.02
TTTGCCACGTGTGGAG	0.07
CGTGGCACGTGTTAGG	-0.12
TTTATCACGTGAACTT	0.44
TTTAGCACGTGTGCTA	-0.18
ATTGGCACGTGTTTGA	-0.1
TGATCCACGTGTGGGT	0.01
GCGGGCACGTGCGGGT	-0.1
GTTTGCACGTGAGTGC	0.23
GTTACCACGTGGGTTT	0.13
CTTTACACGTGGTGTA	-0.08
GTGGCCACGTGGAGTT	-0.07
GGCAGCACGTGTTGGG	-0.05
GTTAACACGTGGAGGG	0.05
CGACGCACGTGGGTAG	-0.13
GCCGGCACGTGGGGGA	-0.19

Sequence	relative binding free energy [kcal/mol]
ATGCACACGTGGTTGG	-0.1
TTTTGCACGTGTATAA	0.05
TAGGTCACGTGCGGAG	0.09
AGCTTCACGTGTAATT	0.43
AGTGTCACGTGATATA	0.13
TACAGCACGTGGGCTG	-0.22
GGTGTCACGTGGCATA	0.11
TTTCTCACGTGTGATG	0.33
ATGATCACGTGTTATT	0.03
TATGGCACGTGGGTAC	-0.23
TCAGACACGTGGGTTG	-0.06
TAGTACACGTGTATAG	0
TTAATCACGTGGCTTA	0.07
GATTTCACGTGTTATA	0.16
GTGTGCACGTGAGGGG	0.22
ATTCGCACGTGTAGTG	-0.04
TAGTACACGTGTTTTG	0.04
TTGCCCACGTGTGGGT	-0.09
GGGACCACGTGGTGAG	-0.13
TAGGTCACGTGGGTGG	-0.03
CGATGCACGTGTATTG	0.03
GTAGTCACGTGTAATA	0.22
ATGGCCACGTGTTTTG	-0.01
